What all share (assay): microbe, parasite or virus in culture
The subject of one assay is HIV-1 K103N RT mutant. As to conditions: Human immunodeficiency virus 1, HeLa, read-out: IC50 against K103N, HeLa cell assay.
The subject of the next assay is HIV-1 V106A RT mutant. Particulars: Human immunodeficiency virus 1, HeLa, read-out: IC50 against V106A, HeLa cell assay.
The subject of the next assay is HIV-1 Y181C RT mutant. Particulars: Human immunodeficiency virus 1, HeLa, read-out: IC50 against Y181C, HeLa cell assay.
The next assay deals with HIV-1 Y188L RT mutant. As to conditions: Human immunodeficiency virus 1, HeLa, read-out: IC50 against Y188L.

This passage reports IC50 results from patent publication US8304419B2, “Chemical compounds” (priority 2007, dated 2012).

The structures appear in SMILES notation. Where a name gives a salt, the structure may show the parent alone.

The IC50 is the concentration that gives 50% inhibition. As for `N#Cc1cc(Cl)cc(Oc2c(C(F)F)ccc(CNC(=O)c3[nH]c(N)nc3Cl)c2F)c1` [Example 253, 2-amino-4-chloro-N-{[3-[(3-chloro-5-cyanophenyl)oxy]-4-(difluoromethyl)-2-fluorophenyl]methyl}-1H-imidazole-5-carboxamide], the IC50 with HIV-1 K103N RT mutant, in the assay on HIV-1 V106A RT mutant, with HIV-1 Y181C RT mutant and with HIV-1 Y188L RT mutant was under 10 nM each time.
Regarding `Cc1nc(Cl)c(C(=O)NCc2ccc(C(F)F)c(Oc3cc(Cl)cc(C#N)c3)c2F)[nH]1` [Example 254, 4-chloro-N-{[3-[(3-chloro-5-cyanophenyl)oxy]-4-(difluoromethyl)-2-fluorophenyl]methyl}-2-methyl-1H-imidazole-5-carboxamide], the IC50 is under 10 nM with HIV-1 K103N RT mutant, under 10 nM with HIV-1 V106A RT mutant, under 10 nM in the assay with HIV-1 Y181C RT mutant and 10 to 1000 nM in the assay on HIV-1 Y188L RT mutant.
As to `C=Cc1ccc(CNC(=O)c2[nH]c(C)nc2Cl)c(F)c1Oc1cc(Cl)cc(C#N)c1` [Example 269, 4-Chloro-N-({3-[(3-chloro-5-cyanophenyl)oxy]-4-ethenyl-2-fluorophenyl}methyl)-2-methyl-1H-imidazole-5-carboxamide], the IC50 in the assay with HIV-1 K103N RT mutant, in the assay on HIV-1 V106A RT mutant, in the assay on HIV-1 Y181C RT mutant and with HIV-1 Y188L RT mutant was under 10 nM in each case.
For the molecule `Cc1nc(Cl)c(C(=O)NCc2ccc(C3CC3)c(Oc3cc(Cl)cc(C#N)c3)c2F)[nH]1` [Example 270, 4-Chloro-N-({3-[(3-chloro-5-cyanophenyl)oxy]-4-cyclopropyl-2-fluorophenyl}methyl)-2-methyl-1H-imidazole-5-carboxamide], the half-maximal inhibitory concentration (IC50) in the assay on HIV-1 K103N RT mutant, with HIV-1 V106A RT mutant, in the assay on HIV-1 Y181C RT mutant and in the assay with HIV-1 Y188L RT mutant was under 10 nM each time.
On to `Cc1cc(C#N)cc(Oc2c(Cl)ccc(CNC(=O)c3[nH]c(C)nc3Cl)c2F)n1` [Example 271, 4-Chloro-N-({4-chloro-3-[(4-cyano-6-methyl-2-pyridinyl)oxy]-2-fluorophenyl}methyl)-2-methyl-1H-imidazole-5-carboxamide], for which the IC50 in the assay with HIV-1 K103N RT mutant, with HIV-1 V106A RT mutant, in the assay with HIV-1 Y181C RT mutant and in the assay on HIV-1 Y188L RT mutant was under 10 nM in each case.
Consider `C=Cc1cc(C#N)cc(Oc2c(Cl)ccc(CNC(=O)c3[nH]c(C)nc3Cl)c2F)n1` [Example 272, 4-Chloro-N-({4-chloro-3-[(4-cyano-6-ethenyl-2-pyridinyl)oxy]-2-fluorophenyl}methyl)-2-methyl-1H-imidazole-5-carboxamide], for which the concentration for half-maximal inhibition (IC50) in the assay on HIV-1 K103N RT mutant, with HIV-1 V106A RT mutant, in the assay with HIV-1 Y181C RT mutant and in the assay on HIV-1 Y188L RT mutant was under 10 nM throughout.
In the case of `Cc1nc(Cl)c(C(=O)NCc2ccc(Cl)c(Oc3cc(C#N)cc(C4CC4)n3)c2F)[nH]1` [Example 273, 4-Chloro-N-({4-chloro-3-[(4-cyano-6-cyclopropyl-2-pyridinyl)oxy]-2-fluorophenyl}methyl)-2-methyl-1H-imidazole-5-carboxamide], the IC50 in the assay on HIV-1 K103N RT mutant, in the assay on HIV-1 V106A RT mutant, in the assay with HIV-1 Y181C RT mutant and in the assay on HIV-1 Y188L RT mutant was under 10 nM in each case.
In the case of `CCc1cc(C#N)cc(Oc2c(Cl)ccc(CNC(=O)c3[nH]c(C)nc3Cl)c2F)n1` [Example 274, 4-Chloro-N-({4-chloro-3-[(4-cyano-6-ethyl-2-pyridinyl)oxy]-2-fluorophenyl}methyl)-2-methyl-1H-imidazole-5-carboxamide], the 50% inhibitory concentration (IC50) with HIV-1 K103N RT mutant, with HIV-1 V106A RT mutant, with HIV-1 Y181C RT mutant and in the assay with HIV-1 Y188L RT mutant was under 10 nM each time.
As to `N#Cc1cc(Oc2c(Cl)ccc(CNC(=O)c3[nH]cnc3Br)c2F)cc(C(F)(F)F)c1` [Example 286, 4-bromo-N-[(4-chloro-3-{[3-cyano-5-(trifluoromethyl)phenyl]oxy}-2-fluorophenyl)methyl]-1H-imidazole-5-carboxamide], the IC50 in the assay with HIV-1 K103N RT mutant, with HIV-1 V106A RT mutant, with HIV-1 Y181C RT mutant and in the assay on HIV-1 Y188L RT mutant was under 10 nM in each case.
`CCc1cc(Cl)cc(Oc2c(Cl)ccc(CNC(=O)c3[nH]cnc3Cl)c2F)c1` [Example 290, 4-chloro-N-({4-chloro-3-[(3-chloro-5-ethylphenyl)oxy]-2-fluorophenyl}methyl)-1H-imidazole-5-carboxamide]: the IC50 with HIV-1 K103N RT mutant, with HIV-1 V106A RT mutant, in the assay with HIV-1 Y181C RT mutant and with HIV-1 Y188L RT mutant was under 10 nM each time.
For the molecule `N#C/C=C/c1cc(Cl)cc(Oc2c(Cl)ccc(CNC(=O)c3[nH]cnc3Cl)c2F)c1` [Example 291, 4-chloro-N-{[4-chloro-3-({3-chloro-5-[(E)-2-cyanoethenyl]phenyl}oxy)-2-fluorophenyl]methyl}-1H-imidazole-5-carboxamide], the concentration for half-maximal inhibition (IC50) in the assay on HIV-1 K103N RT mutant, in the assay with HIV-1 V106A RT mutant, in the assay with HIV-1 Y181C RT mutant and with HIV-1 Y188L RT mutant was under 10 nM throughout.
Take `C#Cc1cc(Cl)cc(Oc2c(Cl)ccc(CNC(=O)c3[nH]cnc3Cl)c2F)c1` [Example 293, 4-chloro-N-({4-chloro-3-[(3-chloro-5-ethynylphenyl)oxy]-2-fluorophenyl}methyl)-1H-imidazole-5-carboxamide]: the half-inhibitory concentration (IC50) in the assay with HIV-1 K103N RT mutant, in the assay on HIV-1 V106A RT mutant, in the assay on HIV-1 Y181C RT mutant and in the assay with HIV-1 Y188L RT mutant was under 10 nM each time.
As to `Cc1nc(Cl)c(C(=O)NCc2ccc(Cl)c(Oc3cc(Br)cc(C#N)c3)c2F)[nH]1` [Example 299, N-({3-[(3-bromo-5-cyanophenyl)oxy]-4-chloro-2-fluorophenyl}methyl)-4-chloro-2-methyl-1H-imidazole-5-carboxamide], the IC50 in the assay on HIV-1 K103N RT mutant, in the assay with HIV-1 V106A RT mutant, in the assay on HIV-1 Y181C RT mutant and in the assay with HIV-1 Y188L RT mutant was under 10 nM in each case.
`Cc1nc(Cl)c(C(=O)NCc2ccc(Cl)c(Oc3cc(C#N)cc(C(F)F)c3)c2F)[nH]1` [Example 300, 4-chloro-N-[(4-chloro-3-{[3-cyano-5-(difluoromethyl)phenyl]oxy}-2-fluorophenyl)methyl]-2-methyl-1H-imidazole-5-carboxamide trifluoroacetate]: the half-maximal inhibitory concentration (IC50) with HIV-1 K103N RT mutant, in the assay with HIV-1 V106A RT mutant, in the assay on HIV-1 Y181C RT mutant and in the assay on HIV-1 Y188L RT mutant was under 10 nM each time.
`Cc1nc(Cl)c(C(=O)NCc2cc(C#N)c(Cl)c(Oc3cc(Cl)cc(C#N)c3)c2F)[nH]1` [Example 304, 4-chloro-N-({4-chloro-3-[(3-chloro-5-cyanophenyl)oxy]-5-cyano-2-fluorophenyl}methyl)-2-methyl-1H-imidazole-5-carboxamide trifluoroacetate]: the concentration for half-maximal inhibition (IC50) in the assay with HIV-1 K103N RT mutant, in the assay with HIV-1 V106A RT mutant, in the assay with HIV-1 Y181C RT mutant and with HIV-1 Y188L RT mutant was under 10 nM each time.
`Cc1cc(C#N)cc(Oc2c(Cl)ccc(CNC(=O)c3[nH]c(C)nc3Cl)c2F)c1` [Example 305, 4-chloro-N-({4-chloro-3-[(3-cyano-5-methylphenyl)oxy]-2-fluorophenyl}methyl)-2-methyl-1H-imidazole-5-carboxamide trifluoroacetate]: the IC50 with HIV-1 K103N RT mutant, in the assay on HIV-1 V106A RT mutant, in the assay with HIV-1 Y181C RT mutant and in the assay on HIV-1 Y188L RT mutant was under 10 nM throughout.
For `Cc1nc(Cl)c(C(=O)NCc2ccc(Cl)c(Oc3cc(Cl)cc(C#N)c3Cl)c2F)[nH]1` [Example 306, 4-chloro-N-({4-chloro-3-[(2,5-dichloro-3-cyanophenyl)oxy]-2-fluorophenyl}methyl)-2-methyl-1H-imidazole-5-carboxamide trifluoroacetate], the IC50 in the assay with HIV-1 K103N RT mutant, in the assay on HIV-1 V106A RT mutant, in the assay on HIV-1 Y181C RT mutant and in the assay with HIV-1 Y188L RT mutant was under 10 nM throughout.
In the case of `N#Cc1cc(Oc2c(Cl)ccc(CNC(=O)c3[nH]c(N)nc3Cl)c2F)cc(C2CC2)c1` [Example 307, 2-amino-4-chloro-N-({4-chloro-3-[(3-cyano-5-cyclopropylphenyl)oxy]-2-fluorophenyl}methyl)-1H-imidazole-5-carboxamide trifluoroacetate], the IC50 with HIV-1 K103N RT mutant, in the assay on HIV-1 V106A RT mutant, in the assay with HIV-1 Y181C RT mutant and with HIV-1 Y188L RT mutant was under 10 nM in each case.
In the case of `Cc1nc(Cl)c(C(=O)NCc2ccc(Cl)c(Oc3cc(C#N)cc(C4CC4)c3)c2F)[nH]1` [Example 308, 4-chloro-N-({4-chloro-3-[(3-cyano-5-cyclopropylphenyl)oxy]-2-fluorophenyl}methyl)-2-methyl-1H-imidazole-5-carboxamide trifluoroacetate], the IC50 with HIV-1 K103N RT mutant, with HIV-1 V106A RT mutant, in the assay with HIV-1 Y181C RT mutant and with HIV-1 Y188L RT mutant was under 10 nM each time.
Regarding `N#Cc1cc(Oc2c(Cl)ccc(CNC(=O)c3[nH]cnc3Cl)c2F)cc(C(F)F)c1` [Example 309, 4-chloro-N-[(4-chloro-3-{[3-cyano-5-(difluoromethyl)phenyl]oxy}-2-fluorophenyl)methyl]-1H-imidazole-5-carboxamide], the concentration for half-maximal inhibition (IC50) in the assay with HIV-1 K103N RT mutant, in the assay on HIV-1 V106A RT mutant, in the assay with HIV-1 Y181C RT mutant and in the assay with HIV-1 Y188L RT mutant was under 10 nM in each case.
For `C#Cc1cc(C#N)cc(Oc2c(Cl)ccc(CNC(=O)c3[nH]cnc3Cl)c2F)c1` [Example 310, 4-chloro-N-({4-chloro-3-[(3-cyano-5-ethynylphenyl)oxy]-2-fluorophenyl}methyl)-1H-imidazole-5-carboxamide], the IC50 in the assay on HIV-1 K103N RT mutant, in the assay on HIV-1 V106A RT mutant, with HIV-1 Y181C RT mutant and with HIV-1 Y188L RT mutant was under 10 nM in each case.
With `CN(C)Cc1cc(C#N)cc(Oc2c(Cl)ccc(CNC(=O)c3[nH]cnc3Cl)c2F)c1` [Example 311, 4-chloro-N-{[4-chloro-3-({3-cyano-5-[(dimethylamino)methyl]phenyl}oxy)-2-fluorophenyl]methyl}-1H-imidazole-5-carboxamide trifluoroacetate], the IC50 in the assay on HIV-1 K103N RT mutant, in the assay with HIV-1 V106A RT mutant, in the assay with HIV-1 Y181C RT mutant and with HIV-1 Y188L RT mutant was under 10 nM in each case.
